According to the supplement of paper PMC8285479:
Where a name gives a salt, the structure may show the parent alone. ± gives the standard deviation of the averaged measurements. Whole data set: some 1,900 compounds, median “normalised cell viability (NPI; 0 = phenylarsine oxide control, 1 = DMSO control)” near 1, cut for the lowest 2% near 0.039. The list shows a part of the results.

System: NCI-H1944
Experiment: normalised cell viability (NPI; 0 = phenylarsine oxide control, 1 = DMSO control) (fraction of DMSO control); NCI-H1944 is a non-small cell lung cancer line; higher = more viable cells (less compound toxicity)
Details: 6 days
[1] = glucocorticoid arm: hydrocortisone 2.75 uM co-treatment, compound 1 µM
[2] = glucocorticoid arm: hydrocortisone 2.75 uM co-treatment, compound 5 µM
[3] = glucocorticoid arm: hydrocortisone 2.75 uM pre-treated 2 days and continued, compound 1 µM
[4] = glucocorticoid arm: hydrocortisone 2.75 uM pre-treated 2 days and continued, compound 5 µM
[5] = glucocorticoid arm: vehicle, compound 1 µM
[6] = glucocorticoid arm: vehicle, compound 5 µM
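Also: CTB read-out in 384-well plates, mean of triplicate wells, normalised per plate against 1 µM phenylarsine oxide and 0.1% DMSO, compounds added 24 h after seeding.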

Row | Structure (SMILES) | normalised cell viability [1] | normalised cell viability [2] | normalised cell viability [3] | normalised cell viability [4] | normalised cell viability [5] | normalised cell viability [6]
1 | NCCCS(=O)(=O)O [3-Amino-1-propanesulfonic acid sodium salt] | 0.9767 ± 0.0021 | 0.842 ± 0.028 | 0.9927 ± 0.0021 | 0.917 ± 0.042 | 0.998 ± 0.011 | 0.9267 ± 0.0015
2 | NC(Cc1ccc(Cl)cc1)C(=O)O (racemic) [(±)-p-Chlorophenylalanine] | 1.002 ± 0.0072 | 1.01 ± 0.015 | 1.006 ± 0.0075 | 1 ± 0.011 | 1.007 ± 0.0058 | 1.003 ± 0.0058
3 | Cc1nc2c([nH]1)c(=O)n(C)c(=O)n2Cc1ccco1 [Furafylline] | 1 ± 0.018 | 0.967 ± 0.016 | 1.003 ± 0.0058 | 0.987 ± 0.022 | 0.9963 ± 0.0015 | 0.9977 ± 0.0025
4 | CC(NCCc1ccc(O)cc1)C(O)c1ccc(O)cc1 (configuration not stated) [Ritodrine hydrochloride] | 0.994 ± 0.01 | 0.988 ± 0.02 | 1.02 ± 0.015 | 0.982 ± 0.0096 | 0.982 ± 0.0066 | 0.9927 ± 0.0015
5 | CC(NCCc1ccc(O)cc1)C(O)c1ccc(O)cc1 (configuration not stated) [Ritodrine HCl] | 1.01 ± 0.011 | 0.984 ± 0.028 | 1.04 ± 0.017 | 0.984 ± 0.038 | 0.998 ± 0.013 | 0.9917 ± 0.0023
6 | CC(C)(O)CC(=O)NCCn1ccc2ncnc(Nc3ccc(Oc4cccc(C(F)(F)F)c4)c(Cl)c3)c21 | 0.906 ± 0.038 | 0.894 ± 0.012 | 0.9267 ± 0.0061 | 0.901 ± 0.026 | 0.918 ± 0.0062 | 0.824 ± 0.029
7 | CCC1(C)CC(=O)NC1=O (configuration not stated) [Ethosuximide] | 1 ± 0.012 | 1 ± 0.013 | 1.01 ± 0.013 | 1.01 ± 0.021 | 0.9903 ± 0.0087 | 0.989 ± 0.0061
8 | C[C@H](Nc1ncnc2nc[nH]c12)c1cc2cccc(Cl)c2c(=O)n1-c1ccccc1 | 0.828 ± 0.041 | 0.6173 ± 0.0059 | 0.87 ± 0.029 | 0.662 ± 0.072 | 0.938 ± 0.027 | 0.809 ± 0.017
9 | CC(C)[C@H](NC(=O)OCc1ccccc1)C(=O)N[C@H](C=O)Cc1ccccc1 | 0.989 ± 0.011 | 0.987 ± 0.041 | 0.997 ± 0.0052 | 1.03 ± 0.085 | 1 ± 0.0087 | 1 ± 0.013
10 | OC[C@H]1NC[C@@H](O)[C@@H]1O [1,4-Dideoxy-1,4-imino-D-arabinitol] | 0.9993 ± 0.0011 | 0.9807 ± 0.0015 | 0.997 ± 0.014 | 0.976 ± 0.027 | 1.002 ± 0.007 | 0.992 ± 0.012
11 | O=S(=O)(c1cccc2cnccc12)N1CCCNCC1 [Fasudil (HA-1077) HCl] | 0.99 ± 0.018 | 0.981 ± 0.027 | 1.02 ± 0.011 | 1.02 ± 0.02 | 1.001 ± 0.0085 | 1.01 ± 0.018
12 | COc1cc2nc(N3CCCN(C)CC3)nc(NC3CCN(Cc4ccccc4)CC3)c2cc1OC | – | – | – | 1.03 | – | –
13 | CC(C)c1cnn2c(NCc3ccccc3)cc(NCCCCCCN)nc12 | 1.01 ± 0.015 | 1.03 ± 0.01 | 1.01 | 1.02 ± 0.011 | 1.01 ± 0.016 | 0.9977 ± 0.0025
14 | NC1CONC1=O (racemic) [DL-Cycloserine] | 0.993 ± 0.0046 | 0.979 ± 0.013 | 0.854 ± 0.22 | 0.9865 ± 0.0035 | 0.982 ± 0.013 | 0.9793 ± 0.0032
15 | CSc1nc(N)c2ncn([C@@H]3O[C@H](COP(=O)(O)OP(=O)(O)O)[C@@H](O)[C@H]3O)c2n1 [2-Methylthioadenosine diphosphate trisodium] | 1.007 ± 0.0058 | 1.02 ± 0.026 | 1.01 ± 0.012 | 1.06 ± 0.082 | 0.9917 ± 0.0072 | 1 ± 0.017
16 | N=c1nc(N2CCCCC2)cc(N)n1O [Minoxidil] | 1.02 ± 0.011 | 1.013 ± 0.0058 | 1.01 ± 0.024 | 0.993 ± 0.021 | 0.999 ± 0.0017 | 1.02 ± 0.015
17 | CCCCS(=N)(=O)CCC(N)C(=O)O [L-Buthionine-sulfoximine] | 1.01 | 1.02 ± 0.02 | 1 ± 0.017 | 1.01 ± 0.038 | 0.9963 ± 0.0055 | 1.02 ± 0.011
